Assay results taken from patent publication US12583836B2 (Anaxis Pharma Pty Ltd, priority 2020, dated 2026).

What was measured:
U937 cells = experiment: Counter screen: cell viability without the TSQ cocktail (CelltiterGlo); set-up: species or system human; settings: read-out: Off-target effect (IC50 cell-based assay)
Procedure: Counter screen: In parallel, all compounds were tested for their ability to affect cell viability. The same U937 cells were treated with compound in DMSO without the TSQ cocktail. This counter screen enabled evaluation of off-target effects. In this case, cell viability was measured by CelltiterGlo.

[1] = tested on: U937 human histiocytic leukemia cell line; experiment: Inhibition of TSQ induced necroptosis, 384 well plate format (CellTitre-Glo); settings: U937 cells, TSQ cocktail (TNF, Smac mimetic, Q-VD-OPh), CelltiterGlo, read-out: Inhibition of TSQ-induced necroptosis (IC50 cell-based assay)
Procedure: […] ASSAY: Screening compounds for inhibition of TSQ induced necroptosis, 384 well plate format.
Cell Line ID: U937 human histiocytic leukemia cell line.
Cell Concentration (cells/well): Final cell density is 20000 cells per well.
Cell growth medium: HT-RPMI medium+7.4% Fetal Bovine Serum (FBS). Cells are cultured in Corning 150 cm^2 tissue culture flasks with vented caps at 37° C./5% CO2.
Incubation: Plates were incubated at 37° C./5% CO2 in a humidified incubator for 48 hours following addition of compounds and death stimuli (TSQ cocktail).
Compound concentration: 36 μM starting concentration, 1:3 dilution, 10 point
DMSO final concentration (% v/v): 0.3%.
Compounds in TSQ cocktail (T: TNF; S: Smac mimetic; Q: Q-VD-OPh) and their final concentrations:
hTNF-Fc (100 ng/ml)—produced by standard procedures as shown in Bossen et al., J Biol Chem, 2006, 281(20), 13964-13971.
Compound A (500 nM)—Smac mimetic, Tetralogic and SYNthesis med chem
Q-VD-OPh (10 μM)—MP Biomedicals
The cellular assay was carried out according to the following steps: • 1. Each well was prepared by sequential addition of: • a. DMSO (control; columns 1-2 and 23-24) or compound in DMSO—addition was performed using acoustic transfer of nl volumes of stock compound to give final test concentrations of 36, 12, 4, 1.3, 0.44, 0.148, 0.049, 0.016, 0.005 and 0.002 μM. All wells were backfilled with DMSO to a final total volume in the well of 100 nl. • b. Following compound/DMSO addition in step (a), 40 μL of cell suspension (5×10^5 cells/mL) was added to provide a final cell concentration of 20,000 cells per well, and • c. Following cell addition in step (b), 10 μL of 5×TSQ cocktail (except to positive controls; columns 1 and 23) was added to each well. • 2. After 48 hours, plate was removed from the 37° C. incubator and equilibrated to room temperature for 45 minutes. • 3. 15 μL of room temperature CellTitre-Glo2™ (Promega™) was added to each well. • 4. Shook plates for 2 minutes (˜600 rpm) and incubated at room temperature for 15 minutes to allow signal to stabilise. • 5. Read luminescence readout on a plate reader. Analysis:
Percent viability was calculated for each compound according to equation (2):
[formula] • wherein • RawData is the readout of any cell containing a compound of the invention • TA is the total activity provided by the luminescence readout from DMSO only wells (columns 2 and 24)=100% viability • NSA is the non-specific activity provided by DMSO+TSQ wells (columns 1 and 23)=0% viability
Curve fitting: 10-point titration curves are fitted with the 4-parameter logistic nonlinear regression model and the IC50 reported is the inflection point of the curve.
Analysis: Data was loaded into Dotmatics™ and visualised using the Tibco® Spotfire™ software. 10 points titration curves were fitted with the 4-parameter logistic nonlinear regression model and the IC50 reported reflect the inflection point of the curve for curve fitting.
Assay involving the TSQ cocktail (T: TNF; S: Smac mimetic; Q: Q-VD-OPh): TSQ treatment ensures that cells specifically undergo necroptotic cell death. TNF activates the TNF receptor, Smac mimetic directs the signal away from proinflammatory signaling and toward the RIP1/RIP3-mediated cell death pathways, and Q-VD-OPh ensures that the apoptotic response is blocked leaving only the programmed necrosis response. The compounds' activity (solution in DMSO) tested in this TSQ-induced assay was evaluated by determining the number of viable cells in culture by measuring the amount of ATP present as measured by CelltiterGlo.

[2] = Homo sapiens, U-937, cell viability by CelltiterGlo

Row | SMILES | IC50 (U937 cells; [2]) [µM] | IC50 ([1]; Homo sapiens, U-937) [µM] | IC50 (U937 cells; cell viability by CelltiterGlo) [µM] | IC50 [1] [µM]
1 | CCS(=O)(=O)Nc1ccc(-c2c(C(N)=O)c(Nc3cnccn3)nn2C)cc1 [Compound 222, 5-(4-(ethylsulfonamido)phenyl)-1-methyl-3-(pyrazin-2-ylamino)-1H-pyrazole-4-carboxamide] | > 30 | 1 to 30 | – | –
2 | NC(=O)c1c(-c2ccc(NS(=O)(=O)CC(F)(F)F)c(OCc3ccc(F)cc3)c2)n[nH]c1Nc1cnc(C(F)(F)F)cn1 [Compound 238, 3-{3-[(4-fluorophenyl)methoxy]-4-(2,2,2-trifluoroethanesulfonamido)phenyl}-5-{[5-(trifluoromethyl)pyrazin-2-yl]amino}-1H-pyrazole-4-carboxamide] | > 30 | 0.01 to 1 | – | –
3 | NC(=O)c1c(-c2ccc(NS(=O)(=O)C(F)F)c(OCc3ccc(F)cc3)c2)n[nH]c1Nc1cnc(C(F)(F)F)cn1 [Compound 246, 3-[4-(difluoromethanesulfonamido)-3-[(4-fluorophenyl)methoxy]phenyl]-5-{[5-(trifluoromethyl)pyrazin-2-yl]amino}-1H-pyrazole-4-carboxamide] | > 30 | 0.01 to 1 | – | –
4 | CCS(=O)(=O)Nc1ccc(-c2n[nH]c(Nc3cnccn3)c2C(N)=O)cc1OC1(c2ccc(F)cc2)CC1 [Compound 248, 3-{4-ethanesulfonamido-3-[1-(4-fluorophenyl)cyclopropoxy]phenyl}-5-[(pyrazinyl)amino]-1H-pyrazole-4-carboxamide] | > 30 | 0.01 to 1 | – | –
5 | C[C@H](Oc1cc(-c2n[nH]c(Nc3cnccn3)c2C(N)=O)ccc1NS(=O)(=O)C(F)F)c1ccc(Cl)cc1 [Compound 252, 3-{3-[(1S)-1-(4-chlorophenyl)ethoxy]-4-(difluoromethanesulfonamido)phenyl}-5-[(pyrazin-2-yl)amino]-1H-pyrazole-4-carboxamide] | > 30 | 1 to 30 | – | –
6 | C[C@H](Oc1cc(-c2c(C(N)=O)c(Nc3cnccn3)nn2C)ccc1NS(=O)(=O)C(F)F)c1ccc(F)cc1 [Compound 253, 5-[4-(difluoromethanesulfonamido)-3-[(1S)-1-(4-fluorophenyl)ethoxy]phenyl]-1-methyl-3-[(pyrazin-2-yl)amino]-1H-pyrazole-4-carboxamide] | > 30 | 1 to 30 | – | –
7 | C[C@H](Oc1cc(-c2n[nH]c(Nc3cnccn3)c2C(N)=O)ccc1NS(=O)(=O)CC(F)(F)F)c1cccc(Cl)c1 [Compound 256, 3-{3-[(1S)-1-(3-chlorophenyl)ethoxy]-4-(2,2,2-trifluoroethane-sulfonamido)phenyl}-5-[(pyrazin-2-yl)amino]-1H-pyrazole-4-carboxamide] | > 30 | > 30 | – | –
8 | C[C@H](Oc1cc(-c2n[nH]c(Nc3ccccn3)c2C(N)=O)ccc1NS(=O)(=O)C(F)F)c1ccc(F)cc1 [Compound 260, 3-[4-(difluoromethanesulfonamido)-3-[(1S)-1-(4-fluorophenyl)ethoxy]phenyl]-5-[(pyridin-2-yl)amino]-1H-pyrazole-4-carboxamide] | > 30 | < 0.01 | – | –
9 | C[C@H](Oc1cc(-c2n[nH]c(Nc3cnccn3)c2C(N)=O)ccc1NS(=O)(=O)CC(F)(F)F)c1cccc(F)c1 [Compound 265] | – | – | > 30 | 1 to 30
10 | C[C@@H](Oc1cc(-c2n[nH]c(Nc3cnccn3)c2C(N)=O)ccc1NS(=O)(=O)C(F)F)c1ccc(F)cc1 [Compound 271, (R)-3-(4-((difluoromethyl)sulfonamido)-3-(1-(4-fluorophenyl)ethoxy)phenyl)-5-(pyrazin-2-ylamino)-1H-pyrazole-4-carboxamide] | > 30 | 0.01 to 1 | – | –
11 | NC(=O)c1c(-c2ccc(NS(=O)(=O)C(F)F)c(OCc3nccs3)c2)n[nH]c1Nc1cnccn1 [Compound 275, 3-(4-((difluoromethyl)sulfonamido)-3-(thiazol-2-ylmethoxy)phenyl)-5-(pyrazin-2-ylamino)-1H-pyrazole-4-carboxamide] | > 30 | 1 to 30 | – | –
12 | C[C@H](Oc1cc(-c2n[nH]c(Nc3cc(C4(C)CC4)on3)c2C(N)=O)ccc1NS(=O)(=O)C(F)F)c1ccc(F)cc1 [Compound 276, (S)-3-(4-((difluoromethyl)sulfonamido)-3-(1-(4-fluorophenyl)ethoxy)phenyl)-5-((5-(1-methylcyclopropyl)isoxazol-3-yl)amino)-1H-pyrazole-4-carboxamide] | 1 to 30 | < 0.01 | – | –
13 | C[C@H](Oc1cc(-c2n[nH]c(Nc3cc(C(F)(F)F)n(C)n3)c2C(N)=O)ccc1NS(=O)(=O)C(F)F)c1ccc(F)cc1 [Compound 277, (S)-3-(4-((difluoromethyl)sulfonamido)-3-(1-(4-fluorophenyl)ethoxy)phenyl)-5-((1-methyl-5-(trifluoromethyl)-1H-pyrazol-3-yl)amino)-1H-pyrazole-4-carboxamide] | > 30 | < 0.01 | – | –
14 | C[C@H](Oc1cc(-c2n[nH]c(Nc3ccc(C4CCOCC4)cn3)c2C(N)=O)ccc1NS(=O)(=O)C(F)F)c1ccc(F)cc1 [Compound 278, (S)-3-(4-((difluoromethyl)sulfonamido)-3-(1-(4-fluorophenyl)ethoxy)phenyl)-5-((5-(tetrahydro-2H-pyran-4-yl)pyridin-2-yl)amino)-1H-pyrazole-4-carboxamide] | > 30 | < 0.01 | – | –
15 | C[C@H](Oc1cc(-c2n[nH]c(Nc3cc(C4CCC4)on3)c2C(N)=O)ccc1NS(=O)(=O)C(F)F)c1ccc(F)cc1 [Compound 281, (S)-5-((5-cyclobutylisoxazol-3-yl)amino)-3-(4-((difluoromethyl)sulfonamido)-3-(1-(4-fluorophenyl)ethoxy)phenyl)-1H-pyrazole-4-carboxamide] | > 30 | 0.01 to 1 | – | –
16 | C[C@H](Oc1cc(-c2n[nH]c(Nc3ncn(C)n3)c2C(N)=O)ccc1NS(=O)(=O)C(F)F)c1ccc(F)cc1 [Compound 283, (S)-3-(4-((difluoromethyl)sulfonamido)-3-(1-(4-fluorophenyl)ethoxy)phenyl)-5-((1-methyl-1H-1,2,4-triazol-3-yl)amino)-1H-pyrazole-4-carboxamide] | > 30 | 0.01 to 1 | – | –
17 | Cc1nc(Nc2[nH]nc(-c3ccc(NS(=O)(=O)C(F)F)c(O[C@@H](C)c4ccc(F)cc4)c3)c2C(N)=O)sc1C [Compound 284, (S)-3-(4-((difluoromethyl)sulfonamido)-3-(1-(4-fluorophenyl)ethoxy)phenyl)-5-((4,5-dimethylthiazol-2-yl)amino)-1H-pyrazole-4-carboxamide] | > 30 | 0.01 to 1 | – | –
18 | Cc1cn(C)nc1Nc1[nH]nc(-c2ccc(NS(=O)(=O)C(F)F)c(O[C@@H](C)c3ccc(F)cc3)c2)c1C(N)=O [Compound 286] | > 30 | 1 to 30 | – | –
19 | COCC(C)(C)c1cc(Nc2[nH]nc(-c3ccc(NS(=O)(=O)C(F)F)c(O[C@@H](C)c4ccc(F)cc4)c3)c2C(N)=O)no1 [Compound 288, (S)-3-(4-((difluoromethyl)sulfonamido)-3-(1-(4-fluorophenyl)ethoxy)phenyl)-5-((5-(1-methoxy-2-methylpropan-2-yl)isoxazol-3-yl)amino)-1H-pyrazole-4-carboxamide] | > 30 | < 0.01 | – | –

Read-outs that look alike come from different tables or passages of the source.
